Results on 62 compounds are retold here after the supplement of paper PMC9446081.

The whole screen tested about 39,000 compounds, of which about 220 (0.56%) showed activity. The list shows a part of the results.
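Further: static incubation at 37 °C against the wild-type strain, values averaged over two biological replicates.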

The test system of the assay is Escherichia coli K-12 BW25113. The assay can be described thus: relative growth (OD600 normalised to plate interquartile mean) (fraction); higher = less growth inhibition, active = 0.2 or less. The conditions noted are these: 50 µM; LB; incubation time: overnight (16-24 h).
Turning to `COc1ccc([C@H]([C@H](Cc2ccccc2)OC(C)=O)N(C/C=C/[C@@H](OC(C)=O)c2ccccc2)[C@@H](Cc2ccccc2)C(OC)OC)cc1`, the relative growth is inactive: 1.04.
Take `CO[C@H]1CN(C)C(=O)c2ccc(NC(=O)C3CC3)cc2OC[C@H](C)N(C(=O)C2CCOCC2)C[C@@H]1C`: the relative growth is inactive: 0.997.
Regarding `C[C@@H]1CN([C@@H](C)CO)C(=O)Cc2cc(NC(=O)CCN3CCOCC3)ccc2O[C@H]1CN(C)S(C)(=O)=O`, the relative growth was inactive: 1.02.
The value for `Cc1nnn2c1COC[C@H](CNS(C)(=O)=O)C2` was inactive: 1; that for `C[C@@H]1CN([C@H](C)CO)C(=O)c2cc(NC(=O)Nc3ccc(F)cc3)ccc2O[C@@H]1CN(C)Cc1ccc(C(F)(F)F)cc1` was inactive: 0.974.
With `O=c1cc(CN2CCCC2)nc2n1CCCNC2`, the relative growth is inactive: 0.968.
Turning to `C[C@H]1CC/C=C\[C@H]2O[C@@]34C=CCN(c5ccc(Cl)cc5)C(=O)[C@H]3N([C@@H](C)CO)C(=O)[C@]4(C)[C@@H]2C(=O)O1`, the relative growth was inactive: 0.999.
For `CN(Cc1cnc2nc(N)nc(N)c2n1)c1ccc(C(=O)NC(CCC(=O)O)C(=O)O)cc1.O` (configuration not stated), the relative growth was inactive: 0.943.
In the case of `C[C@@H]1CCCCO[C@H](CN(C)S(=O)(=O)c2ccccc2)[C@H](C)CN([C@H](C)CO)C(=O)c2cc(NC(=O)C3CCCCC3)ccc2O1`, the relative growth was inactive: 0.923.
As for `C[C@H](N)c1ccc(Cl)cc1`, the relative growth is inactive: 1.01.
As to `C[C@@H]1CN([C@@H](C)CO)C(=O)Cc2cc(NC(=O)Cc3ccccc3)ccc2O[C@H]1CN(C)S(=O)(=O)c1cccs1`, the relative growth is inactive: 1.01.
With `C[C@@H]1CCCCO[C@@H](CN(C)CC2CC2)[C@H](C)CN([C@@H](C)CO)C(=O)c2cc(NC(=O)Nc3ccc4c(c3)OCO4)ccc2O1`, the relative growth is inactive: 0.982.
Consider `C[C@@H]1CN([C@H](C)CO)C(=O)c2cccc(NS(=O)(=O)c3cn(C)cn3)c2O[C@H]1CN(C)Cc1ccccc1`, for which the relative growth was inactive: 0.975.
The value for `CCS(=O)(=O)Nc1ccc2c(c1)C(=O)N(C)[C@@H]1CC[C@@H](CC(=O)NCCCN3CCOCC3)O[C@@H]1CO2` was inactive: 0.993; that for `C[C@H](CO)N1C[C@H](C)[C@@H](CN(C)C(=O)Nc2ccc(C(F)(F)F)cc2)Oc2ccc(NS(C)(=O)=O)cc2CC1=O` was inactive: 1.
In the case of `O=C1O[C@@H](c2ccccc2)[C@@H](c2ccccc2)N2[C@@H](c3ccccc3OCCO)[C@]3(C(=O)Nc4ccc(C#CC5(O)CCCCCC5)cc43)[C@@H](C(=O)N3CCCCCCC3)[C@H]12` it was inactive: 1.04; in that of `CCOC(=O)CN1C[C@]23C=C[C@H](O2)[C@@H](C(=O)NCc2ccc(OC)cc2)[C@H]3C1=O`, inactive: 1.03.
`O=C(C[C@H]1CC[C@@H](NC(=O)CN2CCOCC2)[C@H](CO)O1)NCCc1ccccc1`: the relative growth was inactive: 1.01.
In the case of `C[C@@H]1CN([C@H](C)CO)C(=O)c2cc(NC(=O)Nc3ccc(F)cc3)ccc2O[C@@H](C)CCCCO[C@H]1CN(C)C(=O)Nc1ccccc1` it was inactive: 0.997.
For the compound `COc1ccc(-c2cc(=O)c3c(O)c(OC)c(OC4OC(COC5OC(C)C(O)C(O)C5O)C(O)C(O)C4O)cc3o2)cc1` (configuration not stated), the relative growth was inactive: 1.04.
As to `Cc1ccc(S(=O)(=O)Nc2ccc3c(c2)C(=O)N([C@@H](C)CO)C[C@@H](C)[C@@H](CN(C)Cc2ccc(C(F)(F)F)cc2)O3)cc1`, the relative growth is inactive: 1.04.
In the case of `C[C@@H]1CCCCO[C@H](CN(C)C(=O)Nc2ccc3c(c2)OCO3)[C@@H](C)CN([C@H](C)CO)C(=O)c2cc(NC(=O)c3ccccc3)ccc2O1` it was inactive: 1.04.
For `CCC(=O)Nc1ccc2c(c1)C(=O)N(C)C[C@@H](OC)[C@@H](C)CN(C(=O)CN1CCOCC1)[C@@H](C)CO2`, the relative growth is inactive: 0.988.
Consider `CC(C)NC(=O)N(C)C[C@@H]1Oc2ccc(NC(=O)CCC(F)(F)F)cc2CC(=O)N([C@@H](C)CO)C[C@H]1C`, for which the relative growth is inactive: 0.983.
As for `O=c1cc(-c2ccccc2)ss1`, the relative growth was inactive: 0.955.
Turning to `COc1ccc(NC(=O)N(C)C[C@@H]2Oc3c(NC(=O)c4cnccn4)cccc3C(=O)N([C@H](C)CO)C[C@@H]2C)cc1`, the relative growth was inactive: 0.988.
Consider `CC(=O)N1CCN(c2c(C)cnc3c2c(=O)n(CC(N)=O)c(=O)n3C)CC1`, for which the relative growth was inactive: 0.994.
For the compound `NCc1c[nH]nc1-c1ccccc1`, the relative growth is inactive: 1.
`C[C@@H]1CCCCO[C@@H](CN(C)C(=O)Nc2ccc3c(c2)OCO3)[C@H](C)CN([C@@H](C)CO)C(=O)c2cc(NC(=O)Nc3ccccc3)ccc2O1`: the relative growth was inactive: 1.05.
With `C[C@@H]1CN([C@@H](C)CO)C(=O)Cc2cc(NC(=O)NC3CCCCC3)ccc2O[C@H]1CN(C)Cc1ccc(-c2ccccc2)cc1`, the relative growth is inactive: 0.923.
For `COc1ccc(S(=O)(=O)N(C)C[C@@H]2Oc3c(NC(=O)NC(C)C)cccc3C(=O)N([C@H](C)CO)C[C@@H]2C)cc1`, the relative growth is inactive: 0.98.
As for `CC(C)CC#Cc1ccc2c(c1)O[C@@H](CN(C)S(=O)(=O)c1cccc(F)c1)[C@@H](C)CN([C@H](C)CO)S2(=O)=O`, the relative growth is inactive: 1.03.
`C[C@@H]1CN([C@@H](C)CO)C(=O)c2cc(NC(=O)Nc3ccc(C(F)(F)F)cc3)ccc2O[C@@H]1CN(C)Cc1ccc(Cl)c(Cl)c1`: the relative growth was inactive: 1.02.
On to `C[C@@H]1CN([C@@H](C)CO)S(=O)(=O)c2ccc(C#Cc3ccncc3)cc2O[C@@H]1CN(C)C(=O)Nc1ccc2c(c1)OCO2`, for which the relative growth is inactive: 0.99.
Regarding `COc1cccc(C#Cc2cnc3c(c2)C(=O)N([C@H](C)CO)C[C@H](C)[C@H](CN(C)C(=O)C2CCC2)O3)c1`, the relative growth is inactive: 1.01.
Take `O=C(C[C@H]1CC[C@@H]2[C@H](COC[C@@H](O)CN2C(=O)Nc2ccc(Cl)cc2)O1)NCCc1ccncc1`: the relative growth is inactive: 0.926.
`Cc1ccc2sc(N(CCCN(C)C)C(=O)c3ccc(S(=O)(=O)N(C)Cc4ccccc4)cc3)nc2c1C`: the relative growth was inactive: 0.95.
With `CN(c1ccc(N)cc1[N+](=O)[O-])S(C)(=O)=O`, the relative growth was inactive: 1.02.
For the compound `NCc1ccncc1`, the relative growth is inactive: 0.956.
Regarding `C[C@@H]1CN([C@H](C)CO)C(=O)c2cccc(NC(=O)C3CC3)c2O[C@@H]1CN(C)S(=O)(=O)c1ccccc1`, the relative growth was inactive: 1.01.
In the case of `C[C@@H]1CN([C@@H](C)CO)C(=O)c2cc(NS(=O)(=O)c3cn(C)cn3)ccc2O[C@@H](C)CCCCO[C@@H]1CN(C)S(=O)(=O)c1cccs1`, the relative growth is inactive: 1.01.
The value for `C[C@H](CO)N1C[C@H](C)[C@H](CN(C)C(=O)Nc2ccccc2)Oc2ccc(NC(=O)Cn3cnnn3)cc2C1=O` was inactive: 0.995; that for `C[C@H](CO)N1C[C@H](C)[C@@H](CN(C)C(=O)CN(C)C)Oc2cc(C#CCC3CCCC3)ccc2S1(=O)=O` was inactive: 0.995.
The value for `C[C@H](CO)N1C[C@H](C)[C@@H](CN(C)S(=O)(=O)c2cn(C)cn2)Oc2c(NC(=O)NC3CCCCC3)cccc2C1=O` was inactive: 1.02; that for `NC(N)=O` was inactive: 0.964; that for `C[C@@H]1CN([C@@H](C)CO)S(=O)(=O)c2ccc(C#Cc3ccc(F)cc3)cc2O[C@@H]1CN(C)S(=O)(=O)c1cn(C)cn1` was inactive: 1.04.
For the compound `Cc1c(NC(C)C)c(=O)n(-c2ccccc2)n1C.Cl`, the relative growth is inactive: 1.17.
Take `COc1ccc(S(=O)(=O)Nc2ccc3c(c2)C(=O)N([C@H](C)CO)C[C@@H](C)[C@H](CN(C)C(=O)Nc2ccc(C(F)(F)F)cc2)OCCCC[C@H](C)O3)cc1`: the relative growth is inactive: 1.01.
In the case of `C[C@H]1CN([C@@H](C)CO)C(=O)c2ccccc2-c2ccccc2CO[C@H]1CN(C)Cc1ccc(Oc2ccccc2)cc1` it was inactive: 1.02; in that of `Cc1ccc(S(=O)(=O)N(C)C[C@@H]2Oc3c(NS(=O)(=O)c4ccc(F)cc4)cccc3C(=O)N([C@H](C)CO)C[C@H]2C)cc1`, inactive: 1; in that of `C[C@@H]1CN([C@H](C)CO)C(=O)c2cc(-c3ccc(C#N)cc3)cnc2O[C@H]1CN(C)C(=O)Nc1ccc(C(F)(F)F)cc1`, inactive: 1.03.
On to `COc1ccc(S(=O)(=O)N(C)C[C@@H]2Oc3ccc(NC(=O)CCC(F)(F)F)cc3CC(=O)N([C@@H](C)CO)C[C@H]2C)cc1`, for which the relative growth is inactive: 1.02.
As for `C=C(C)CNc1nc(-c2ccccc2)c(-c2ccccc2)s1`, the relative growth was inactive: 1.01.
Take `CNC(=O)C[C@H]1CC[C@H]2[C@@H](COC[C@@H](O)CN2C(=O)Nc2cccc(OC)c2)O1`: the relative growth is inactive: 0.971.
With `COc1ccc(CN(C)C[C@@H]2OCCCC[C@@H](C)Oc3ccc(NC(=O)Nc4ccc(F)cc4)cc3C(=O)N([C@@H](C)CO)C[C@@H]2C)cc1`, the relative growth was inactive: 1.01.
On to `C[C@H]1CN([C@@H](C)CO)C(=O)c2cccc(NC(=O)Nc3ccc(C(F)(F)F)cc3)c2O[C@@H]1CN(C)C(=O)NC1CCCCC1`, for which the relative growth is inactive: 0.783.
With `C[C@@H]1CN([C@H](C)CO)C(=O)c2cccc(NC(=O)c3ccc(-c4nccs4)cc3)c2O[C@@H]1CN(C)Cc1ccccc1`, the relative growth is inactive: 1.02.
In the case of `CCC(=O)Oc1ccc2c(c1)CCC1C2CCC2(C)C1CC(OC(=O)CC)C2OC(=O)CC` (configuration not stated), the relative growth is inactive: 0.779.
As to `COc1ccc(CN(C)C[C@@H]2OCCCC[C@H](C)Oc3ccc(NC(=O)c4ccccc4)cc3C(=O)N([C@@H](C)CO)C[C@@H]2C)cc1`, the relative growth is inactive: 0.995.
As for `Cc1noc(C)c1S(=O)(=O)Nc1ccc2c(c1)C(=O)N([C@H](C)CO)C[C@@H](C)[C@@H](CN(C)C(=O)NC1CCCCC1)O2`, the relative growth was inactive: 0.997.
Consider `N#CC(c1ccccc1)(c1ccccc1)c1ccccc1Cl`, for which the relative growth is inactive: 1.01.
Turning to `C=CCNC(=O)[C@H]1[C@@H]2C(=O)O[C@@H](c3ccccc3)[C@@H](c3ccccc3)N2[C@@H](c2ccc(OCCO)cc2)[C@]12C(=O)Nc1ccc(C#CC3=CCCCC3)cc12`, the relative growth was inactive: 1.07.
